# Results as given in PubChem BioAssay (NCATS).
# Inconclusive means that the source gave no clear call. Such entries were picked first, then a sample of the others. Potencies beside an inconclusive call are fits to weak or partial responses and may not hold up. Calls of active or inactive are those of the source. Calls follow the shape of the dose curve; as a rule, active = well fitted curve in the direction sought with a large enough effect; inconclusive = small, poorly fitted or top-dose-only effect, or another doubt; inactive = no such curve, though single readings can be large; an effect the other way counts as inactive or inconclusive.
# Key:
# [1] = molecular target: Rap guanine nucleotide exchange factor 3 (Homo sapiens) (UniProt O95398); test: Confirmatory qHTS for antagonist of cAMP-regulated guanine nucleotide exchange factor 3 (EPAC1) (AID 1645880); conditions: EPAC1 Rap1B-BODIPY-GDP exchange, fluorescence; activity, negative = inhibition: at 115 µM (top of the series); also: nearly all actives have a fitted effect of over 55% in size;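 as to activity, negative = inhibition: plate controls were DMSO only for no effect and full effect of the ATA control for full effect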
# How it was run: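 Released BODIPY-GDP fluoresces less than Rap1-bound BODIPY-GDP; the signal is followed at 480/540 nm at 5-min intervals over 30 min, after 5 min at room temperature. Reactions contain 100 nM EPAC1, 250 nM RAP1B-BODIPY-GDP and 50 uM GDP; results are normalized to ATA and DMSO.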
# [2] = molecular target: Rap guanine nucleotide exchange factor 3 (Homo sapiens) (UniProt O95398); test: Counterscreen qHTS for agonist of cAMP-regulated guanine nucleotide exchange factor 3 (EPAC1) (AID 1645889); conditions: EPAC1 Rap1B-BODIPY-GDP exchange, fluorescence; activation: at 154 µM (top of the series) unless noted; also: nearly all actives have a fitted effect of over 40% in size; as to activation: % of control where 0% means no effect
# How it was run: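 Measured: fluorescence of BODIPY-GDP bound to Rap1B, which falls as exchange proceeds. Conditions include 50 uM competing GDP, 5 and 30 min reads, and a later cAMP challenge for antagonist detection.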
# Potency is read from the fitted curve at half-maximal effect; tags tell the direction and shape of the fitted curve.
# Sequence of UniProt O95398 (O95398 whole entry, looked up): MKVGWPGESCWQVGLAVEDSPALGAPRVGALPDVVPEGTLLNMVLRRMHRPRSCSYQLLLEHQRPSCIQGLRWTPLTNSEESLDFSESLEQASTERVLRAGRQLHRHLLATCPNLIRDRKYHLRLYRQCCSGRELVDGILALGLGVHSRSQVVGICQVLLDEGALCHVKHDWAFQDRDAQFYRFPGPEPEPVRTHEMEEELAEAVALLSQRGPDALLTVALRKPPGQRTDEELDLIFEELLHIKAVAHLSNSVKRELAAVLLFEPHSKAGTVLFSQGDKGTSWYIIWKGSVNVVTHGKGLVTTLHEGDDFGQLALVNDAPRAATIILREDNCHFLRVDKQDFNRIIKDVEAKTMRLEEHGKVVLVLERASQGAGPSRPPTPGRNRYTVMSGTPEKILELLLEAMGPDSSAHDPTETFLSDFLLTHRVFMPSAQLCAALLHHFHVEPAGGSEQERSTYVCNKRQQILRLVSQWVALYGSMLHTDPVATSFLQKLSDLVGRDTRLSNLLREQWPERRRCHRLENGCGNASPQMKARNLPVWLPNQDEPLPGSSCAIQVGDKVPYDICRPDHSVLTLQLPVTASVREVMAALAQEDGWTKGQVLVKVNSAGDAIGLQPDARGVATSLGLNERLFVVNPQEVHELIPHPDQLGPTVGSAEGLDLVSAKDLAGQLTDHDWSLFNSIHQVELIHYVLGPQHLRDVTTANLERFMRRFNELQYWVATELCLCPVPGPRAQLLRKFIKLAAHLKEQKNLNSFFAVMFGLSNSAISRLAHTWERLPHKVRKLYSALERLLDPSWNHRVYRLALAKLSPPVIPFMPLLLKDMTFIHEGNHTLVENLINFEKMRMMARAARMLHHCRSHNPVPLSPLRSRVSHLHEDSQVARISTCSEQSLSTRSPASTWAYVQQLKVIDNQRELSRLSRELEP
SMILES,Potency [1],activation [2],Potency [2]
Cc1cccc(-n2ccnc2SCC(=O)Nc2ccc(F)cc2F)c1C,"inconclusive: 95.3 µM [inhibitor, single point]",inconclusive: 40% [activator],
COc1cc(/C=C2\SC(=S)N(CCCCC(=O)O)C2=O)ccc1OS(=O)(=O)c1ccc(C)cc1,"inconclusive: 39.8 µM [inhibitor, partial curve]",inconclusive: 38.7% [activator] [at 30.8 µM],
Cc1cc(CSc2ccc(Cl)cc2)ccc1N,"inconclusive: 47.8 µM [inhibitor, partial curve, poor fit]",,"inconclusive: 22.4 µM [activator, partial curve, poor fit]"
Cc1cccc(C)c1-c1ccc(CN2C(CC(C)C)C(=O)N(Cc3cn(CCO)nn3)CCS2(=O)=O)cc1 (centres undefined),"inconclusive: 31.6 µM [inhibitor, partial curve]",inactive: 18.7% [at 30.8 µM],
Cc1ccc(C)c(-c2ccc(=O)n(Cc3c(F)cccc3Cl)n2)c1,"inconclusive: 47.8 µM [inhibitor, partial curve, poor fit]",inconclusive: 34.5% [activator],
Cc1c(N=Cc2cc(Br)cc(Br)c2O)cccc1C(=O)O,"inconclusive: 44.7 µM [inhibitor, partial curve]",inactive: 3.4% [at 30.8 µM],
Cc1ccc(S(=O)(=O)N2C(c3ccc(Cl)c(Cl)c3)CC=C(C(=O)O)C2c2ccc(Cl)cc2)cc1 (centres undefined),active: 84.9 µM,,inactive
CCCCCNC(=O)C(c1cc2ccccc2o1)n1c(=O)c(-c2ccco2)nc2ccccc21 (centres undefined),active: 16.9 µM,,"inconclusive: 3.55 µM [activator, partial curve, poor fit]"
CCCNC(=O)C1CCN(S(=O)(=O)c2ccc3[nH]c(=O)ccc3c2)CC1,inactive,,inactive
COc1ccccc1C(CCN(Cc1ccccc1)C(C)=O)c1ccco1 (centres undefined),"inconclusive: 35.5 µM [inhibitor, partial curve, poor fit]",inactive: 10.4% [at 30.8 µM],
Cc1ccc(S(=O)(=O)N2[C@@H](c3ccc(Br)cc3)C(C(=O)O)=CC[C@H]2c2ccc(Cl)cc2)cc1,active: 75.7 µM,,inactive
CC(C)c1ccc(NC(=O)c2ccc(Cn3nc(N4CCN(c5ccccc5)CC4)ccc3=O)o2)cc1,active: 84.9 µM,inconclusive: 45.1% [activator],
COc1ccc(C(=O)Nc2ccccc2-c2nnn(CC(N)=O)n2)cc1,"inconclusive: 47.8 µM [inhibitor, partial curve, poor fit]",,inactive
O=C(Cc1c(Cl)cccc1Cl)Nc1ccncc1,inactive,,"inconclusive: 0.0079 µM [activator, full curve, poor fit]"
O=C(Nc1cccc(C(F)(F)F)c1)c1cccc(NS(=O)(=O)c2ccc(O)c(C(=O)O)c2)c1,active: 60.1 µM,,inactive
CC(c1nc2ccccc2n1Cc1ccccc1)n1c(-c2cnccn2)nc2ccccc21 (centres undefined),"inconclusive: 53.6 µM [inhibitor, partial curve]",,"inconclusive: 7.08 µM [activator, full curve, poor fit]"
Cn1cc(CNCc2cn(C)nc2-c2ccc(C3CCCCC3)cc2)cn1,inactive,inconclusive: 31.8% [activator],
Cn1c(=O)c2c(-c3ccccc3Br)n(Cc3ccccc3)cc2n(C)c1=O,"inconclusive: 84.9 µM [inhibitor, partial curve, poor fit]",,"inconclusive: 39.8 µM [activator, partial curve]"
Nc1ccccc1C(=O)NNc1c2ccccc2nc2ccccc12,"inconclusive: 42.6 µM [inhibitor, partial curve]",inconclusive: 40% [activator],
O=C(O)c1ccc(N/N=C/c2ccc(-c3ccccc3Cl)o2)cc1,"inconclusive: 56.2 µM [inhibitor, partial curve, poor fit]",,"inconclusive: 0.01 µM [activator, full curve, poor fit]"
CC(C)N(Cc1cn(C)nc1-c1cccc(Cl)c1)Cc1nccn1C,inactive,inactive: 15% [at 30.8 µM],
C[C@H]1CN([C@@H](C)CO)C(=O)CCCn2cc(nn2)CO[C@@H]1CN(C)S(=O)(=O)c1ccc(-n2cccn2)cc1,inactive,,inactive
